According to PubChem BioAssay AID1645886 (National Center for Advancing Translational Sciences (NCATS), 2021):
Values joined by “and” are separate entries in the source; they are usually repeats but may differ in a detail not shown here. Identical values can stand only once. The campaign covered roughly 16,000 compounds. About 260 (1.6%) were called active. Inconclusive results, whose numbers are uncertain, are shown with a selection of clear calls. Calls come from the whole dose curve; as a rule, active = well fitted inhibition curve with a large enough effect; inconclusive = small, poorly fitted or top-dose-only effect; inactive = no such curve, though single readings can be large or run the other way. Where the call is inconclusive, the potency comes from a doubtful curve fit.
Note: nearly all actives have a fitted effect of over 40% in size.
Potency is the fitted concentration of half-maximal effect; tags give direction and shape of the fitted curve.

Each compound was assayed against Rap guanine nucleotide exchange factor 4 (Homo sapiens) (UniProt Q8WZA2) (assay: Validation qHTS for antagonist of cAMP-regulated guanine nucleotide exchange factor 4 (EPAC2)). Conditions: EPAC2 Rap1B BODIPY-GDP exchange, fluorescence; activity, negative = inhibition: at 112 µM (top of the series).
Sequence of UniProt Q8WZA2 (Q8WZA2 whole entry, looked up): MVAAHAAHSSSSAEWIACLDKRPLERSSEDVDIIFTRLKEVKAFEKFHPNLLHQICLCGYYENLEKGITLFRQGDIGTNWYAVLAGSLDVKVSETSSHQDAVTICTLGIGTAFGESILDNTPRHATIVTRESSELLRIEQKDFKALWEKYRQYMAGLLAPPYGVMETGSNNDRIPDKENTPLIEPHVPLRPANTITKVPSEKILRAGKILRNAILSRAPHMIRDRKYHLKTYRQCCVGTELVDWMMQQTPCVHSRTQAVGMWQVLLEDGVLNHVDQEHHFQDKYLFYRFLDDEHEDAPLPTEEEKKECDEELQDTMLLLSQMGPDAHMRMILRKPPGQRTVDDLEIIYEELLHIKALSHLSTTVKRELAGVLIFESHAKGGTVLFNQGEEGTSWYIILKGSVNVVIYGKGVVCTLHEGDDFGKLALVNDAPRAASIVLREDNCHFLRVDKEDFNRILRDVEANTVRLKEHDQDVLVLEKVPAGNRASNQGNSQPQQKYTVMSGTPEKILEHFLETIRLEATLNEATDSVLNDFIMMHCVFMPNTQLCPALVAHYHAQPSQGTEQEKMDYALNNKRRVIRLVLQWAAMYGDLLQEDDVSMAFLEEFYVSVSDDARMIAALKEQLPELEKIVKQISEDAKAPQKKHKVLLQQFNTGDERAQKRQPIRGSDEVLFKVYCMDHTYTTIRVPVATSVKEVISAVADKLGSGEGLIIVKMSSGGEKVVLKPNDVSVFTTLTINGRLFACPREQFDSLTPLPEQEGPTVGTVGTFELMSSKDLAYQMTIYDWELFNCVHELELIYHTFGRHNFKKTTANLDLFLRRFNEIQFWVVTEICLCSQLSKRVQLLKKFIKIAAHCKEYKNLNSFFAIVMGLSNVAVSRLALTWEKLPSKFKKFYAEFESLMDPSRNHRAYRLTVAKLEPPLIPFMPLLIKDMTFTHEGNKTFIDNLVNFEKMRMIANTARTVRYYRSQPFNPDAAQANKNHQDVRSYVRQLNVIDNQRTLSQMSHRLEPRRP
Method in brief: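 Normalized against a 6.5 mM cAMP agonist control, compounds were tested on 100 nM EPAC2 exchanging Rap1B-bound BODIPY-GDP (250 nM) for 50 uM GDP. Fluorescence drop (ex 480, em 540 nm) was tracked at room temperature over 30 min at 5-min intervals.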
With C[C@@H]1Nc2ccc(Cl)cc2S(=O)(=O)N1 the Potency was inconclusive: 56.2 µM [inhibitor, partial curve, poor fit].
For Cc1nc2sccn2c1CN1Cc2ccccc2OC(c2ccccc2F)C1 (stereo not given), the Potency was inconclusive: 10 µM [inhibitor, partial curve, poor fit].
CC(=O)c1ccc(F)c(-c2cc(C)cc3c2OC(CNC(=O)Cc2c[nH]c4ccccc24)C3)c1 (stereo not given) was tested, and the Potency was inconclusive: 22.4 µM [inhibitor, full curve].
With NC(=O)N1c2ccccc2C=Cc2ccccc21 the Potency was inconclusive: 0.0071 µM [inhibitor, full curve, poor fit].
In the case of CCOC(=O)C1=C(C)NC(C)=C(C(=O)OCC)C1c1c(F)c(F)c(F)c(F)c1F, the Potency is reported as active: 35.5 µM.
For Cc1ccc2nc(CNC(=O)c3cc(NC(=O)c4ccccc4)cc4ncn(C5CCCC5)c34)cn2c1, the “activity, negative = inhibition” value was inactive: -7.61%.
In the case of CCN1CCCC1CNCc1cc2c(OC)c(OC)c(OC)cc2nc1N(C)C (stereo not given), the Potency is reported as inconclusive: 100 µM [inhibitor, single point].
With CO/N=C(/C(=O)N[C@@H]1C(=O)N2C(C(=O)OCOC(=O)C(C)(C)C)=C(C)CS[C@H]12)c1csc(N)n1 the Potency was inconclusive: 100 µM [inhibitor, single point].
CCCC[C@@H](C=O)NC(=O)[C@H](CC(C)C)NC(=O)OCc1ccccc1 was tested, and the Potency was inconclusive: 63.1 µM [inhibitor, partial curve, poor fit].
Cc1cc(C(=O)NCC2CCC3(CCN(Cc4ccccc4C)CC3)O2)n(C)n1 (stereo not given) was tested, and the Potency was inconclusive: 22.4 µM [inhibitor, partial curve, poor fit].
CCCCCCCCN1[C@@H](CC(=O)O)c2ccc(C(F)(F)F)cc2S1(=O)=O was tested, and the Potency was inconclusive: 100 µM [inhibitor, single point].
For COC(=O)c1cc(CNC(=O)c2ccccc2)cc(NC(=O)c2ccccc2OC)c1, the Potency was inconclusive: 0.562 µM [inhibitor, full curve, poor fit].
O=c1c(O)c(-c2cc(O)c(O)c(O)c2)oc2cc(O)cc(O)c12 was tested, and the Potency was inconclusive: 39.8 µM [inhibitor, partial curve] and inconclusive: 44.7 µM [inhibitor, partial curve, poor fit].
CS(=O)(=O)N1CCC2(CCCN(Cc3cc(C(F)(F)F)cc(C(F)(F)F)c3)C2)CC1 was tested, and the Potency was inconclusive: 28.2 µM [inhibitor, full curve, poor fit].
With Cc1cc(C)cc(C(=O)N(C)[C@H](Cc2ccc(-c3ccccc3)cc2)C(=O)N[C@@H](Cc2c[nH]c3ccccc23)C(=O)O)c1 the Potency was inconclusive: 50.1 µM [inhibitor, partial curve].
With COc1ccc2cc(CCC(C)=O)ccc2c1 the Potency was active: 15.8 µM and inconclusive: 15.8 µM [inhibitor, partial curve, poor fit].
With CCCCCc1ccc(C)cc1O the Potency was inconclusive: 1.26 µM [inhibitor, full curve, poor fit].
For Cc1cc2c(cc1C)N[C@]1(C[C@H]3CCCC(=O)N4CC[C@@H](C1)[C@@H]34)C(=NC(C)(C)CC(C)(C)C)N2, the Potency was inconclusive: 0.158 µM [inhibitor, full curve, poor fit].
In the case of CC1CCC(=O)N(CCSc2ccccc2)CC1 (stereo not given), the Potency is reported as inconclusive: 89.1 µM [inhibitor, single point].
For CCCCCCCCCCCCC/C=C\[C@@H](O)[C@H](CO)NC(C)=O, the Potency was inconclusive: 44.7 µM [inhibitor, partial curve].
COCC(=O)N1CCC2(CCCN(c3ccc(-c4ccccc4)cc3)C2)CC1 was tested, and the “activity, negative = inhibition” value was inactive: -9.94%.
Cc1ccc2nc(SCC(=O)N3CCC4(CC3)CC4C(=O)Nc3ccc(F)c(F)c3)[nH]c2c1 (stereo not given) was tested, and the Potency was inconclusive: 100 µM [inhibitor, partial curve, poor fit].
For COCCNc1ncnc2ccc(-c3ccccc3C(F)(F)F)cc12, the Potency was inconclusive: 56.2 µM [inhibitor, partial curve, poor fit].
C=C(c1ccc2ccccc2n1)c1cccs1 was tested, and the Potency was inconclusive: 0.708 µM [inhibitor, partial curve, poor fit].
With COc1ccc(CN2CC[C@H]3C=CC[C@@H](C(=O)NC4CCCCC4)[C@H]3C2=O)cc1OC the Potency was inconclusive: 100 µM [inhibitor, single point].
For C#C[C@@]1(O)CCC2C3CCC4=CC(=O)CCC4C3CC[C@@]21CC (stereo not given in full), the “activity, negative = inhibition” value was inactive: -20.9%.
With COc1cccc(NC(=O)/C=C\c2ccc(Cl)cc2)c1 the Potency was inconclusive: 56.2 µM [inhibitor, partial curve].
For COc1ccc2[nH]cc(CCNc3ncncc3-c3ccccc3OC)c2c1, the Potency was inconclusive: 89.1 µM [inhibitor, partial curve, poor fit].
For Cn1cccc1C(=O)N1CCC2(CC1)CN(c1cccc(-c3ccccc3)c1)C2, the Potency was inconclusive: 12.6 µM [inhibitor, partial curve, poor fit].
COc1ccc(C(=O)N2CCC[C@@]3(CCN(c4ccccc4)C3)C2)cc1 was tested, and the Potency was inconclusive: 56.2 µM [inhibitor, partial curve, poor fit].
For COc1ccc(CCN2CCC(Nc3nc4ccccc4n3Cc3ccc(F)cc3)CC2)cc1, the Potency was inconclusive: 100 µM [inhibitor, single point].
In the case of COc1ccccc1CN1CC2(CCN(C(=O)c3cc(C(F)(F)F)cc(C(F)(F)F)c3)CC2)C1, the Potency is reported as inconclusive: 56.2 µM [inhibitor, partial curve, poor fit].
With CC[C@@H](C)[C@H]1O[C@]2(CC[C@H]1C)C[C@@H]1C[C@@H](CC=C(C)[C@@H](O[C@H]3C[C@H](OC)[C@@H](O[C@H]4C[C@H](OC)[C@@H](O)[C@H](C)O4)[C@H](C)O3)[C@@H](C)C=CC=C3CO[C@@H]4[C@H](O)C(C)=C[C@@H](C(=O)O1)[C@]34O)O2 the Potency was inconclusive: 14.1 µM [inhibitor, full curve, poor fit].
In the case of COCCn1c(=O)c(-c2ccccc2)nc2cnc(Oc3ccccc3)nc21, the Potency is reported as inconclusive: 50.1 µM [inhibitor, partial curve, poor fit].
COCc1c(C(C)C)nc(C(C)C)c(/C=C/[C@@H](O)C[C@@H](O)CC(=O)O)c1-c1ccc(F)cc1 was tested, and the Potency was inconclusive: 39.8 µM [inhibitor, partial curve].
With COCCC(=O)NCC1Cc2cc(Cl)cc(-c3ccc4[nH]ccc4c3)c2O1 (stereo not given) the “activity, negative = inhibition” value was inactive: -23%.
With CO[C@H]1[C@H](NC(=O)c2ccsc2)c2ccccc2C12CCN(Cc1cc(Cl)ccc1O)CC2 the “activity, negative = inhibition” value was inactive: -2.03%.
For CS(=O)(=O)N1CCC2(CCN(c3cccc(-c4ccccc4)c3)CC2)CC1, the Potency was inconclusive: 100 µM [inhibitor, single point].
With CCCCCc1ccc(-c2cn(CCc3c[nH]c4ccccc34)nn2)cc1 the Potency was inconclusive: 79.4 µM [inhibitor, partial curve, poor fit].
In the case of CC(=O)OC1CCC23CC1(C)CCC2C(C)(C)CC3OC(C)=O (stereo not given), the Potency is reported as inconclusive: 39.8 µM [inhibitor, partial curve].
For O=Nc1c(-c2c(O)[nH]c3ccccc23)[nH]c2ccccc12, the Potency was inconclusive: 12.6 µM [inhibitor, full curve, poor fit].
In the case of CC(=O)OCOC(=O)CN(CC(=O)OCOC(C)=O)c1ccccc1OCCOc1ccccc1N(CC(=O)OCOC(C)=O)CC(=O)OCOC(C)=O, the Potency is reported as inconclusive: 17.8 µM [inhibitor, partial curve, poor fit].
In the case of COc1ccccc1CNc1ncncc1-c1ccccc1Cl, the Potency is reported as inconclusive: 28.2 µM [inhibitor, partial curve, poor fit].
CCCCCCCN1CCC(=O)N(CCO)CC1 was tested, and the Potency was inconclusive: 1 µM [inhibitor, full curve, poor fit].
COc1cc(-c2cccnc2)cc2c1OCCN(C(=O)Cc1csc(C)n1)C2 was tested, and the “activity, negative = inhibition” value was inactive: -11.1%.
In the case of CCNc1ncc2nc(-c3ccc(OC)cc3)c(=O)n(-c3ccc(OC)cc3)c2n1, the “activity, negative = inhibition” value is reported as inactive: 1.23%.
With CCC1(C2CCN(C(=O)c3csc(C(C)=O)c3)CC2)NC(=O)N(CCc2scnc2C)C1=O (stereo not given) the Potency was inconclusive: 89.1 µM [inhibitor, partial curve, poor fit].
O=C(O)c1[nH]n(-c2ccc(S(=O)(=O)O)cc2)c(=O)c1N=Nc1ccc(S(=O)(=O)O)cc1 was tested, and the Potency was inconclusive: 70.8 µM [inhibitor, partial curve, poor fit].
COc1ccc(Oc2ncc3ncc(=O)n(Cc4ccc(F)cc4)c3n2)cc1 was tested, and the Potency was inconclusive: 22.4 µM [inhibitor, partial curve].
With Cc1ccccc1-c1ccc2ncnc(NCc3cccs3)c2c1 the Potency was inconclusive: 39.8 µM [inhibitor, partial curve, poor fit].
For CCCC(=O)Nc1ncnc2c1ncn2[C@@H]1O[C@@H]2COP(=O)(O)O[C@H]2[C@H]1OC(=O)CCC, the Potency was inconclusive: 35.5 µM [inhibitor, partial curve].
With COC(=O)c1cc(CNC(=O)c2ccncc2)cc(NC(=O)c2ccccc2Cl)c1 the Potency was inconclusive: 100 µM [inhibitor, single point].
O=C(c1ccncc1)N1CCC[C@@]2(CCN(c3ncccn3)C2)C1 was tested, and the “activity, negative = inhibition” value was inactive: -14.4%.
With Nc1ncnc2c1ncn2[C@@H]1O[C@H](COP(=O)(O)OP(=O)(O)OP(=O)(O)OP(=O)(O)OC[C@@H]2O[C@H](n3cnc4c(N)ncnc43)[C@@H](O)[C@H]2O)[C@@H](O)[C@H]1O the Potency was “inactive”.
In the case of CCCCCCCCN1[C@@H](CC(=O)OCC)c2ccc(C(F)(F)F)cc2S1(=O)=O, the Potency is reported as inconclusive: 50.1 µM [inhibitor, partial curve, poor fit].
